Some of the results follow.
Experiments:
Test in all cases: glycan array binding signal (z-score within array); higher = stronger binding
Conditions in all cases: glycan notation: IUPAC condensed, linker removed
[1] = molecular target: Gal(b1-4)GlcNAc(b1-3)Gal(b1-4)GlcNAc(b1-2)Man(a1-3)[Gal(b1-4)GlcNAc(b1-3)Gal(b1-4)GlcNAc(b1-2)Man(a1-6)]Man(b1-4)GlcNAc(b1-4)[Fuc(a1-6)]GlcNAc
In short: (§1)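 Glycan array data came from 3228 arrays in the Consortium for Functional Glycomics database, and only arrays with an available protein sequence were kept. Glycan names were put into IUPAC-condensed notation, and columns mapping to the same glycan were averaged. The binding signal is a within-array Z-score, averaged across arrays of one protein sequence run at different concentrations or buffers and across linkers. A negative Z-score can be read as non-binding.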

[2] = molecular target: Gal(b1-4)GlcNAc(b1-3)Gal(b1-4)GlcNAc(b1-2)[Gal(b1-4)GlcNAc(b1-3)Gal(b1-4)GlcNAc(b1-6)]Man(a1-6)[Gal(b1-4)GlcNAc(b1-3)Gal(b1-4)GlcNAc(b1-2)Man(a1-3)]Man(b1-4)GlcNAc(b1-4)GlcNAc
In short: as §1

[3] = molecular target: Gal(b1-4)GlcNAc(b1-3)Gal(b1-4)GlcNAc(b1-2)[Gal(b1-4)GlcNAc(b1-3)Gal(b1-4)GlcNAc(b1-6)]Man(a1-6)[Gal(b1-4)GlcNAc(b1-3)Gal(b1-4)GlcNAc(b1-2)Man(a1-3)]Man(b1-4)GlcNAc(b1-4)[Fuc(a1-6)]GlcNAc
In short: as §1

[4] = molecular target: Gal(b1-4)GlcNAc(b1-3)Gal(b1-4)GlcNAc(b1-3)Gal(b1-4)GlcNAc
In short: as §1

[5] = molecular target: Gal(b1-4)GlcNAc(b1-3)Gal(b1-4)GlcNAc(b1-3)Gal(b1-4)GlcNAc(b1-2)Man(a1-3)[Gal(b1-4)GlcNAc(b1-3)Gal(b1-4)GlcNAc(b1-3)Gal(b1-4)GlcNAc(b1-2)Man(a1-6)]Man(b1-4)GlcNAc(b1-4)GlcNAc
In short: as §1

[6] = molecular target: Gal(b1-4)GlcNAc(b1-3)Gal(b1-4)GlcNAc(b1-3)Gal(b1-4)GlcNAc(b1-2)Man(a1-3)[Gal(b1-4)GlcNAc(b1-3)Gal(b1-4)GlcNAc(b1-3)Gal(b1-4)GlcNAc(b1-2)Man(a1-6)]Man(b1-4)GlcNAc(b1-4)[Fuc(a1-6)]GlcNAc
In short: as §1

[7] = molecular target: Gal(b1-4)GlcNAc(b1-3)Gal(b1-4)GlcNAc(b1-3)Gal(b1-4)GlcNAc(b1-2)[Gal(b1-4)GlcNAc(b1-3)Gal(b1-4)GlcNAc(b1-3)Gal(b1-4)GlcNAc(b1-6)]Man(a1-6)[Gal(b1-4)GlcNAc(b1-3)Gal(b1-4)GlcNAc(b1-3)Gal(b1-4)GlcNAc(b1-2)Man(a1-3)]Man(b1-4)GlcNAc(b1-4)[Fuc(a1-6)]GlcNAc
In short: as §1

[8] = molecular target: Gal(b1-4)GlcNAc(b1-3)Gal(b1-4)GlcNAc(b1-3)Gal(b1-4)GlcNAc(b1-3)Gal(b1-4)GlcNAc(b1-2)Man(a1-3)[Gal(b1-4)GlcNAc(b1-3)Gal(b1-4)GlcNAc(b1-3)Gal(b1-4)GlcNAc(b1-3)Gal(b1-4)GlcNAc(b1-2)Man(a1-6)]Man(b1-4)GlcNAc(b1-4)GlcNAc
In short: as §1

[9] = molecular target: Gal(b1-4)GlcNAc(b1-3)Gal(b1-4)GlcNAc(b1-3)Gal(b1-4)GlcNAc(b1-3)Gal(b1-4)GlcNAc(b1-2)Man(a1-3)[Gal(b1-4)GlcNAc(b1-3)Gal(b1-4)GlcNAc(b1-3)Gal(b1-4)GlcNAc(b1-3)Gal(b1-4)GlcNAc(b1-2)Man(a1-6)]Man(b1-4)GlcNAc(b1-4)[Fuc(a1-6)]GlcNAc
In short: as §1

[10] = molecular target: Gal(b1-4)GlcNAc(b1-3)Gal(b1-4)GlcNAc(b1-3)Gal(b1-4)GlcNAc(b1-3)Gal(b1-4)GlcNAc(b1-2)[Gal(b1-4)GlcNAc(b1-3)Gal(b1-4)GlcNAc(b1-3)Gal(b1-4)GlcNAc(b1-3)Gal(b1-4)GlcNAc(b1-6)]Man(a1-6)[Gal(b1-4)GlcNAc(b1-3)Gal(b1-4)GlcNAc(b1-3)Gal(b1-4)GlcNAc(b1-3)Gal(b1-4)GlcNAc(b1-2)Man(a1-3)]Man(b1-4)GlcNAc(b1-4)[Fuc(a1-6)]GlcNAc
In short: as §1

[11] = molecular target: Gal(b1-4)GlcNAc(b1-3)Gal(b1-4)GlcNAc(b1-3)Gal(b1-4)GlcNAc(b1-3)Gal(b1-4)GlcNAc(b1-3)Gal(b1-4)GlcNAc(b1-2)Man(a1-3)[Gal(b1-4)GlcNAc(b1-3)Gal(b1-4)GlcNAc(b1-3)Gal(b1-4)GlcNAc(b1-3)Gal(b1-4)GlcNAc(b1-3)Gal(b1-4)GlcNAc(b1-2)Man(a1-6)]Man(b1-4)GlcNAc(b1-4)GlcNAc
In short: as §1

[12] = molecular target: Gal(b1-4)GlcNAc(b1-3)Gal(b1-4)GlcNAc(b1-3)Gal(b1-4)GlcNAc(b1-3)Gal(b1-4)GlcNAc(b1-3)Gal(b1-4)GlcNAc(b1-2)Man(a1-3)[Gal(b1-4)GlcNAc(b1-3)Gal(b1-4)GlcNAc(b1-3)Gal(b1-4)GlcNAc(b1-3)Gal(b1-4)GlcNAc(b1-3)Gal(b1-4)GlcNAc(b1-2)Man(a1-6)]Man(b1-4)GlcNAc(b1-4)[Fuc(a1-6)]GlcNAc
In short: as §1

[13] = molecular target: Gal(b1-4)GlcNAc(b1-3)Gal(b1-4)GlcNAc(b1-3)Gal(b1-4)GlcNAc(b1-3)Gal(b1-4)GlcNAc(b1-3)Gal(b1-4)GlcNAc(b1-2)[Gal(b1-4)GlcNAc(b1-3)Gal(b1-4)GlcNAc(b1-3)Gal(b1-4)GlcNAc(b1-3)Gal(b1-4)GlcNAc(b1-3)Gal(b1-4)GlcNAc(b1-6)]Man(a1-6)[Gal(b1-4)GlcNAc(b1-3)Gal(b1-4)GlcNAc(b1-3)Gal(b1-4)GlcNAc(b1-3)Gal(b1-4)GlcNAc(b1-3)Gal(b1-4)GlcNAc(b1-2)Man(a1-3)]Man(b1-4)GlcNAc(b1-4)[Fuc(a1-6)]GlcNAc
In short: as §1

[14] = molecular target: Gal(b1-4)GlcNAc(b1-3)Gal(b1-4)GlcNAc(b1-3)Gal(b1-4)GlcNAc(b1-3)Gal(b1-4)GlcNAc(b1-3)Gal(b1-4)GlcNAc(b1-3)Gal(b1-4)GlcNAc(b1-2)Man(a1-3)[Gal(b1-4)GlcNAc(b1-3)Gal(b1-4)GlcNAc(b1-3)Gal(b1-4)GlcNAc(b1-3)Gal(b1-4)GlcNAc(b1-3)Gal(b1-4)GlcNAc(b1-3)Gal(b1-4)GlcNAc(b1-2)Man(a1-6)]Man(b1-4)GlcNAc(b1-4)GlcNAc
In short: as §1

[15] = molecular target: Gal(b1-4)GlcNAc(b1-3)Gal(b1-4)GlcNAc(b1-3)GalNAc
In short: as §1

[16] = molecular target: Gal(b1-4)GlcNAc(b1-3)Gal(b1-4)GlcNAc(b1-3)[Gal(b1-4)GlcNAc(b1-3)Gal(b1-4)GlcNAc(b1-6)]GalNAc
In short: as §1

[17] = molecular target: Gal(b1-4)GlcNAc(b1-3)Gal(b1-4)GlcNAc(b1-6)[Gal(b1-3)]GalNAc
In short: as §1

[18] = molecular target: Gal(b1-4)GlcNAc(b1-3)Gal(b1-4)[Fuc(a1-3)]GlcNAc(b1-3)Gal(b1-4)[Fuc(a1-3)]GlcNAc
In short: as §1

[19] = molecular target: Gal(b1-4)GlcNAc(b1-3)GalNAc
In short: as §1

[20] = molecular target: Gal(b1-4)GlcNAc(b1-3)[Fuc(a1-3)GlcNAc(b1-6)]Gal(b1-4)Glc
In short: as §1

[21] = molecular target: Gal(b1-4)GlcNAc(b1-3)[Gal(b1-4)GlcNAc(b1-6)]Gal(b1-4)GlcNAc
In short: as §1

[22] = molecular target: Gal(b1-4)GlcNAc(b1-3)[GlcNAc(b1-6)]Gal(b1-4)GlcNAc
In short: as §1

[23] = molecular target: Gal(b1-4)GlcNAc(b1-6)Gal(b1-4)GlcNAc
In short: as §1

[24] = molecular target: Gal(b1-4)GlcNAc(b1-6)GalNAc
In short: as §1

[25] = molecular target: Gal(b1-4)GlcNAc(b1-6)[Gal(b1-3)]GalNAc
In short: as §1

[26] = molecular target: Gal(b1-4)GlcNAc(b1-6)[Gal(b1-4)GlcNAc(b1-3)]GalNAc
In short: as §1

[27] = molecular target: Gal(b1-4)GlcNAc6P
In short: as §1

[28] = molecular target: Gal(b1-6)Gal
In short: as §1

[29] = molecular target: Gal3S(b1-3)GalNAc
In short: as §1

[30] = molecular target: Gal3S(b1-3)GlcNAc
In short: as §1

[31] = molecular target: Gal3S(b1-3)[Fuc(a1-4)]GlcNAc
In short: as §1

[32] = molecular target: Gal3S(b1-4)Glc
In short: as §1

[33] = molecular target: Gal3S(b1-4)Glc6S
In short: as §1

[34] = molecular target: Gal3S(b1-4)GlcNAc
In short: as §1

[35] = molecular target: Gal3S(b1-4)[Fuc(a1-3)]Glc6S
In short: as §1

[36] = molecular target: Gal3S(b1-4)[Fuc(a1-3)]GlcNAc
In short: as §1

[37] = molecular target: Gal3S(b1-4)[Fuc(a1-3)]GlcNAc6S
In short: as §1

B1: AFL5 (Aspergillus fumigatus), Q4WB00 (protein)
chain: MDNFMEMTKKLGHQPELLRLRALDATYDDALEGKLVVAPLDMSEPGKKILDSGTADGTWLRNVRSKQSVPHDYYGSDVEGELFPKDPDGITYFAHSFKDPWPQQYLGFFDLVHIRGSLAGSAPEGPAPVIQNLTTLLKPGGWVQLMEMNAFSPPPNGPAMTDFAKMASEMFTGIGVGDFANNNKSMLEDAGLKNVQEKRVIVNLGKKAKPELHDQSIHGVTGPIVPLTSVARTVKSSFTGEQLDALPARVKEELETEGGQVEMIIAFGQKA
**Q.** Which results are given for B1?
**A.** glycan array binding signal (z-score) [1]: 1.35; glycan array binding signal (z-score) [2]: 0.482; glycan array binding signal (z-score) [3]: 0.673; glycan array binding signal (z-score) [4]: -0.697; glycan array binding signal (z-score) [5]: 0.801; glycan array binding signal (z-score) [6]: 0.701; glycan array binding signal (z-score) [7]: 0.485; glycan array binding signal (z-score) [8]: 0.075; glycan array binding signal (z-score) [9]: 1.69; glycan array binding signal (z-score) [10]: 0.478; glycan array binding signal (z-score) [11]: 0.224; glycan array binding signal (z-score) [12]: 1.46; glycan array binding signal (z-score) [13]: 1.6; glycan array binding signal (z-score) [14]: 0.768; glycan array binding signal (z-score) [15]: 0.35; glycan array binding signal (z-score) [16]: 0.197; glycan array binding signal (z-score) [17]: 0; glycan array binding signal (z-score) [18]: -0.606; glycan array binding signal (z-score) [19]: -0.561; glycan array binding signal (z-score) [20]: 0.323; glycan array binding signal (z-score) [21]: -0.342; glycan array binding signal (z-score) [22]: -0.725; glycan array binding signal (z-score) [23]: -0.403; glycan array binding signal (z-score) [24]: 0.388; glycan array binding signal (z-score) [25]: 0.219; glycan array binding signal (z-score) [26]: -0.27; glycan array binding signal (z-score) [27]: -0.243; glycan array binding signal (z-score) [28]: -0.347; glycan array binding signal (z-score) [29]: 0.664; glycan array binding signal (z-score) [30]: -0.291; glycan array binding signal (z-score) [31]: 0.21; glycan array binding signal (z-score) [32]: 0.158; glycan array binding signal (z-score) [33]: -0.212; glycan array binding signal (z-score) [34]: 0.093; glycan array binding signal (z-score) [35]: 0.374; glycan array binding signal (z-score) [36]: 0.221; glycan array binding signal (z-score) [37]: 0.418

Reference: the supplement of paper PMC8728848
